From PubChem BioAssay AID1347428 (National Center for Advancing Translational Sciences (NCATS), 2020)
Out of some 91,000 compounds screened, about 290 (0.32%) were called active. Inconclusive results, whose numbers are uncertain, are shown with a selection of clear calls. The call rests on the fitted dose curve; in most records, active means well fitted inhibition curve with a large enough effect; inconclusive means small, poorly fitted or top-dose-only effect; inactive means no such curve, though single readings can be large or run the other way. A potency beside an inconclusive call is a rough fit, not a confirmed value.

molecular target: Single-stranded DNA cytosine deaminase (Homo sapiens) (UniProt Q9GZX7); test: Primary qHTS assay for inhibitors of Activation Induced Cytidine Deaminase (AID): AID signal; settings: AID deamination FRET fluorescence, UDG-coupled, 4 h; series mostly up to 115 µM; further: nearly all actives have a fitted effect of over 25% in size
UniProt Q9GZX7, sequence (Q9GZX7 whole entry, looked up): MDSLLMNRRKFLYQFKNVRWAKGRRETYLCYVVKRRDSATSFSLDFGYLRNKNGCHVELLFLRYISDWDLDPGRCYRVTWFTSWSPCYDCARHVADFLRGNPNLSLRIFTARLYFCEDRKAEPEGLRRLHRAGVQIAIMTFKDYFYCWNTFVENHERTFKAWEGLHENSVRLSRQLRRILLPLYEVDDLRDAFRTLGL
Potency means the concentration at half of the fitted maximal effect; tags describe the fitted curve by direction and shape.

| Compound | Potency |
| --- | --- |
| CC1=CC(=O)C(C(=O)/C=C/c2ccc(C)s2)C(=O)O1 (centres undefined) | inconclusive: 31.6 µM [inhibitor, partial curve, poor fit] |
| COc1cccc(Cn2cc(C(=O)c3ccc(Cl)cc3)c(=O)c3ccccc32)c1 | active: 28.2 µM |
| CCc1c(C)sc2c1CCN(Cc1ccccc1F)C2c1ccccc1 (centres undefined) | inactive |
| CCC(C)c1ccc(NC(=O)COC(=O)CCC2CCCC2)cc1 (centres undefined) | inactive |
| Cc1cc2c(cc1S(=O)(=O)Nc1cc(C(F)(F)F)cc(C(F)(F)F)c1)OCC(=O)N2 | inconclusive: 89.1 µM [inhibitor, partial curve, poor fit] |
| CCCCOC(=O)c1ccc(NC(=O)c2sc3nc(C)cc(C)c3c2N)cc1 | inactive |
| O=C1/C(=C/c2ccc(Cl)c(Cl)c2)C(c2ccccc2)Oc2ccccc21 (centres undefined) | inactive |
| Cc1ccc(-c2nc(C)c(CCNC(=O)c3ccccc3Br)s2)cc1 | inconclusive: 11.2 µM [inhibitor, partial curve, poor fit] |
| CCOC(=O)c1[nH]c(C)c(CNCCc2ccc(OC)c(OC)c2)c1C | inactive |
| Cc1ccc(N(CC(=O)N2CCN(c3ccc(F)cc3)CC2)S(=O)(=O)c2c(C)noc2C)cc1 | inconclusive: 70.8 µM [inhibitor, partial curve, poor fit] |
| CC(C)(C)C(=O)NCCc1nc2ccccc2n1CCCCOc1ccccc1 | inconclusive: 79.4 µM [inhibitor, partial curve, poor fit] |
| Cc1ccc(Cn2c(CCNC(=O)c3cccc(C)c3)nc3ccccc32)cc1 | inconclusive: 31.6 µM [inhibitor, partial curve, poor fit] |
| Cc1cccc(N2CCN(C3=C(c4ccccc4)C(=O)c4ccccc43)CC2)c1C | inconclusive: 31.6 µM [inhibitor, partial curve, poor fit] |
| COc1ccc(C(Nc2ccccn2)c2ccc3ccc(C)nc3c2O)cc1C (centres undefined) | inactive |
| CCCN(CCC)CCCNC(=O)c1cc2c(=O)n(C)c3ccccc3c2s1 | inconclusive: 79.4 µM [inhibitor, partial curve, poor fit] |
| Cc1ccc(-c2cn3c4ccccc4nc3n2CCCN2CCCC2)cc1 | inactive |
| CCN1CCN(c2oc(-c3ccc(COc4ccccc4C)o3)nc2C#N)CC1 | inconclusive: 15.8 µM [inhibitor, partial curve, poor fit] |
| COc1ccc(NS(=O)(=O)c2ccc3c(c2)NC(=O)CS3)cc1 | inactive |
| O=C(Cc1ccc(-c2csc(Nc3ccc(F)cc3)n2)s1)N1CCOCC1 | inactive |
| O=C(CSc1nc(=O)n(Cc2ccccn2)c2c1CCC2)Nc1ccccc1 | inconclusive: 28.2 µM [inhibitor, partial curve, poor fit] |
| COc1ccc(-c2nc3sc(CCNC(=O)c4ccc(Br)o4)c(C)n3n2)cc1 | inconclusive: 44.7 µM [inhibitor, full curve, poor fit] |
| Cc1ccc(C)c(OCC(=O)Nc2ccc(Br)cc2C(=O)O)c1 | active: 56.2 µM |

| Compound | Potency |
| --- | --- |
| Cc1cccc(S(=O)(=O)c2cn(Cc3ccccc3)c3cc(N4CCCCC4)c(F)cc3c2=O)c1 | inconclusive: 15.8 µM [inhibitor, partial curve, poor fit] |
| CC(C)(C)OC(=O)N1CCC(c2c(C(=O)NCCN3CCC(Cc4ccccc4)CC3)cnn2-c2cccc(Cl)c2)CC1 | inconclusive: 50.1 µM [inhibitor, partial curve, poor fit] |
| Cc1cccc(N2CCN(C(=O)c3cc(S(=O)(=O)N4CCC(C)CC4)cn3C)CC2)c1C | inconclusive: 8.91 µM [inhibitor, full curve, poor fit] |
| Clc1cccc(-n2ncc3c(NC4CCCCC4)ncnc32)c1 | inconclusive: 22.4 µM [inhibitor, full curve, poor fit] |
| CCN(C(=O)c1noc2c1COc1ccc(C)cc1-2)c1cccc(C)c1 | inconclusive: 25.1 µM [inhibitor, partial curve, poor fit] |
| CCC(C)c1ccc(OCC(=O)Nc2cccc(-c3nc4ncccc4o3)c2)cc1 (centres undefined) | active: 31.6 µM |
| CCCCCn1c(N2CCN(Cc3ccccc3C)CC2)nc2c1c(=O)[nH]c(=O)n2C | inconclusive: 39.8 µM [inhibitor, partial curve] |
| COCCCNC(=O)Cn1c(=O)n(Cc2ccc(C(=O)NCc3ccc(C)cc3)cc2)c(=O)c2ccccc21 | inconclusive: 89.1 µM [inhibitor, single point] |
| CCC(=O)c1ccc2c(c1)N(CCCN(C)C)c1ccccc1S2 | inconclusive: 25.1 µM [inhibitor, full curve, poor fit] |
| COC(=O)c1ccc(N2CC3=C(C2=O)C(c2ccccc2)NC(=O)N3C)cc1 (centres undefined) | inactive |
| CCNC(=O)NC(=O)C(C)OC(=O)c1cc(-c2cccs2)nc2ccccc12 (centres undefined) | inactive |
| O=c1c2sccc2ncn1Cc1coc(-c2cccc(F)c2)n1 | inactive |
| Cc1cc(NC(=O)c2ccc(F)cc2F)n(CCC#N)n1 | inactive |
| COc1ccc(C)cc1CNCc1ccco1 | inactive |
| O=C(c1ccc2c(c1)N(Cc1ccc(Cl)cc1)C(=O)c1ccccc1S2(=O)=O)N1CCCCCC1 | inconclusive: 39.8 µM [inhibitor, full curve, poor fit] |
| CCCN(Cc1cccs1)C(=O)Nc1cc(C)ccc1OC | inconclusive: 39.8 µM [inhibitor, partial curve, poor fit] |
| CCCCN1CC(c2nc3ccccc3n2CCCCOc2ccccc2C)CC1=O (centres undefined) | inconclusive: 50.1 µM [inhibitor, partial curve, poor fit] |
| COc1ccccc1C1=NS(=O)(=O)N(C)C(C(=O)N2CCCCC2C)=C1 (centres undefined) | inconclusive: 79.4 µM [inhibitor, partial curve, poor fit] |
| COc1ccc(C2C=C(c3ccccc3)Nc3nc(NS(=O)(=O)c4ccccc4)nn32)cc1 (centres undefined) | inconclusive: 56.2 µM [inhibitor, partial curve, poor fit] |
| CCOC(=O)c1ccccc1NC(=O)CSc1c(C)cnc2c1c(=O)n(C)c(=O)n2C | inconclusive: 89.1 µM [inhibitor, single point] |
| O=Cc1ccc(OCc2ccccc2Cl)cc1 | inactive |
| CCC(C)n1c(=N)c(C(=O)NCc2ccccc2)cc2c(=O)n3cc(C)ccc3nc21 (centres undefined) | inconclusive: 56.2 µM [inhibitor, partial curve, poor fit] |

| Compound | Potency |
| --- | --- |
| COCCc1ccc(OS(=O)(=O)c2c(C)c(Cl)cc(C)c2Cl)cc1 | inactive |
| Cc1ccc(N2C(=O)CSC23C(=O)N(CC(=O)NCCc2ccccc2)c2ccccc23)cc1C (centres undefined) | inconclusive: 2.82 µM [inhibitor, full curve, poor fit] |
| CCCn1cc(S(=O)(=O)c2ccccc2)c(=O)c2cc(F)c(N3CCCCC3)cc21 | inconclusive: 50.1 µM [inhibitor, partial curve, poor fit] |
| CCOC(=O)c1cnc2c(ccc3ccccc32)c1Nc1ccccc1OCC | inactive |
| CSc1ccc(CCNC(=O)c2cnn(-c3ccccc3)c2-n2cccc2)cc1 | inconclusive: 50.1 µM [inhibitor, partial curve, poor fit] |
| Cn1cc(C(=O)N2CCN(S(=O)(=O)c3cccc(Br)c3)CC2)c2ccccc21 | inconclusive: 79.4 µM [inhibitor, partial curve, poor fit] |
| CCN(CC)c1cc(C)c2cc(NC(=O)c3cccc(F)c3)ccc2n1 | inconclusive: 89.1 µM [inhibitor, single point] |
| O=C(Nc1cccc(Cl)c1)N1CCSc2ccccc21 | inconclusive: 63.1 µM [inhibitor, single point] |
| COc1cccc(Cn2nnc(C(=O)Nc3cc(C)ccc3C)c2N)c1 | inconclusive: 39.8 µM [inhibitor, single point] |
| COC(=O)c1sc(N2C(=O)C(=O)/C(=C(/O)c3cccc(OC)c3)C2c2ccccc2F)nc1C (centres undefined) | inconclusive: 56.2 µM [inhibitor, partial curve, poor fit] |
| CCOc1ccc(NC(=O)CN2C(=O)C(c3ccccc3)=NC23CCC(C)CC3)cc1 (centres undefined) | inconclusive: 2.82 µM [inhibitor, full curve, poor fit] |
| CCCNc1c(NC(=O)c2ccc(OCC)c(OCC)c2)c(=O)oc2ccccc12 | inactive |
| Cc1ccc(-c2nnc(Nc3cccc(Cl)c3)c3ccccc23)cc1S(=O)(=O)N1CCOCC1 | inconclusive: 39.8 µM [inhibitor, single point] |
| NNc1cccc(S(=O)(=O)c2cccc(NN)c2)c1 | inconclusive: 39.8 µM [inhibitor, partial curve] |
| Cc1ccc(CN2CCC(CNc3ncnc4onc(-c5ccc(F)cc5)c34)CC2)cc1 | inconclusive: 89.1 µM [inhibitor, single point] |
| Cc1nn(-c2ccc3nnc(C)n3n2)c2c1C(c1ccc(OCC(C)C)cc1)CC(=O)N2 (centres undefined) | inconclusive: 50.1 µM [inhibitor, partial curve, poor fit] |
| Cc1ccc(Cc2c(C)nc3nc(SCC(=O)NC(C)c4ccccc4)nn3c2C)cc1 (centres undefined) | inconclusive: 79.4 µM [inhibitor, partial curve, poor fit] |
| CCOc1cccc(C(=O)Nc2ccc(S(=O)(=O)N(Cc3ccccc3)c3ccccc3)cc2)c1 | inconclusive: 39.8 µM [inhibitor, single point] |
| CC(C)(C)C(=O)CSc1nc2ccsc2c(=O)n1Cc1ccccc1F | inconclusive: 89.1 µM [inhibitor, partial curve, poor fit] |
| CCOC(=O)c1c(C)oc2nc(C)nc(N3CCN(c4ccccc4)CC3)c12 | inactive |
